The supplement of paper PMC3334620
Over roughly 33,000 sequences, “E-score (-0.5 to 0.5)” has its median near -0.016; the highest 2% begin near 0.32. This is one part of the list.

molecular target: T1, Stp1 (UniProt B3LFK1); test: PBM E-score (8-mer binding enrichment) (E-score (-0.5 to 0.5)); higher = stronger / more preferred TF binding; most listed sequences are background and not binding sites; conditions: protein concentration: 200 nM; construct: GST-full length
T1 sequence: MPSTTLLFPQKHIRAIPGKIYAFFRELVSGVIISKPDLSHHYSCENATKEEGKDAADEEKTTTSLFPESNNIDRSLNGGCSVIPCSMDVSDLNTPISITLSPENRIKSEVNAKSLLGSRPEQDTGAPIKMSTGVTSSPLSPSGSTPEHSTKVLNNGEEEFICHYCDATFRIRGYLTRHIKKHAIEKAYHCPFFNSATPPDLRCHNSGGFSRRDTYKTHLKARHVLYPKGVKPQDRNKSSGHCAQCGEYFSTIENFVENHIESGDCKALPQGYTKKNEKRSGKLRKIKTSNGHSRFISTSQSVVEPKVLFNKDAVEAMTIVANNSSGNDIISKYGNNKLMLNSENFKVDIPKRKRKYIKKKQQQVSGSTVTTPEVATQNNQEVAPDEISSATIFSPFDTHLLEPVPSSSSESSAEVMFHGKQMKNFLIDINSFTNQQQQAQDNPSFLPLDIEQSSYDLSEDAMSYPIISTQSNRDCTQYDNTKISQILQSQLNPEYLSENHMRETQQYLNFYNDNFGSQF
Method in brief: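 Masliner-normalised scans of fluorescent anti-GST signal were the basis for scoring. That signal came from GST-tagged yeast transcription factors applied at about 100-200 nM to double-stranded universal all-10-mer Agilent arrays on fresh or once-stripped slides. Each ungapped eight-base word, pooled with its reverse complement, received an E-score from the Universal PBM Analysis Suite.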

Sequence | PBM E-score
TCCTTGCA | -0.0871
ACGAATAA | 0.102
GCCGGGCC | -0.0641
GGGCCTTA | -0.0714
GACCAGAA | 0.0144
ACCAACCG | -0.167
GCGAGGCC | 0.0547
AGGGACAA | -0.0293
ACCCCCTA | -0.39
GTAAAGGA | 0.00792
CACTTGAG | -0.0776
TCCGTGAA | 0.0172
CTACTGGA | -0.137
AGCGAACA | 0.0778
ACGATCGC | 0.189
ATGTCAGA | -0.0262
AAATGATT | 0.126
AGATATCC | 0.0286
CAATAAAG | 0.217
ACGCGCAT | -0.012
CCCCTGGA | -0.375
GCGAATCA | 0.0939
ATGAGTGG | -0.0445
CCAAGGCC | 0.171
GCTTAGAC | -0.11

Sequence | PBM E-score
TAAGAGCA | -0.0159
ATGCTGTG | 0.0433
ATAACGTA | 0.121
ATGTTTGA | -0.0902
TCCTGGCA | -0.0312
CATGTATA | -0.0651
CGCCGGGA | -0.251
GCGCTCCC | -0.106
CACGAACA | 0.121
ATACTCGG | -0.0581
AAGAATAC | 0.133
AGTTGAAC | -0.106
AGTGTTTC | -0.00032
TGCTCACA | 0.0472
AGATAGCT | -0.175
CGGAGTAG | -0.18
CCGAGGAG | -0.0986
ACGAGGCG | 0.457
GACAATTA | 0.165
CTGGCTAA | -0.0944
CAATGGTA | -0.0291
ACAATCAC | -0.0628
AGGGAGCC | -0.183
GAAGAATA | -0.0673
GCCACACA | 0.132

Sequence | PBM E-score
CACGCACA | 0.0561
AGTGTAAC | 0.0739
CGGGGACG | -0.219
ACGAACAA | 0.264
AATTAGGG | -0.211
ACTGTGTC | 0.0125
AAGGCCCC | -0.021
ACTTACGC | -0.0615
CGCCCCCG | -0.213
TGGATGAA | -0.0342
GACTCTGA | -0.139
GTCGGGGA | -0.152
ATTCGAAC | 0.0643
GCGCACGC | -0.0354
GCAGGCGC | 0.148
CCCGCTGC | -0.0787
CGCGCTGC | 0.122
CTGGAACA | -0.0791
GTCCCGCA | -0.0837
GCGCTGCA | 0.232
CAGATAAG | -0.104
GTCTTATA | 0.0311
ACAGGGCA | 0.244
CACCTGTC | -0.0834
AGCACTCC | -0.138

Sequence | PBM E-score
GGTATTCA | 0.126
ACGCGAAA | 0.0194
CTCGATCA | -0.0874
CTGAACAG | -0.00706
GACTCACA | -0.207
AGTTGATA | 0.105
AGTCACTC | -0.138
CCCCACCA | -0.126
ATGGGATC | -0.108
GCACTGCA | 0.00383
GACGCTAA | -0.124
CTGACGAA | 0.251
AGAGTCGA | -0.295
AAACTTAC | -0.0757
AAAACTGT | 0.0272
CGTTATGA | 0.0701
AGCTAAAC | -0.188
CGTCCTCC | -0.239
ATCTAGTC | 0.0586
GCCGGCTA | 0.0397
CGGTCACG | -0.171
AGCAAACC | -0.0816
ACGGTCCC | -0.136
ATGGGTCC | -0.21
AGCAGCTC | -0.191

Sequence | PBM E-score
AGGGCTAC | -0.209
AGCGGGAG | -0.327
GGGTCACC | -0.36
ATATCCCC | -0.136
CAGATCGC | 0.036
CGCTCATC | 0.0903
GCGGAAGA | -0.0192
GCACGCTA | 0.0804
CTTGGTCA | -0.112
GAAAAGCC | 0.0718
ATCATACA | 0.131
GAACAAGC | -0.117
ATCATTAG | 0.0912
ACCTGGTA | -0.29
ACAGCTAA | -0.0921
ATTAGGTG | -0.02
GGATTTCA | -0.0545
ATTTTAGC | 0.0251
AGGTCAGG | -0.28
ATCTGGAC | -0.214
TGTTTAAA | 0.0295
GCGGCCCC | 0.176
TATGGGCA | 0.078
CGCGTGTC | 0.184
GTCCACTA | -0.19

Sequence | PBM E-score
AGTAAAAG | 0.0502
AAAGAGTG | -0.233
CACTGCGC | 0.124
CGAAAGTC | -0.109
GTCAAGTA | -0.116
AGGAGAGA | -0.136
CAAAAGTG | 0.0114
CGCTGTCC | 0.0724
GAGACTCC | -0.255
GGTGGTAA | -0.0854
ATCATGCC | 0.0455
TGGAAGAA | -0.00986
ACTCTACC | -0.13
AGTCGGTA | -0.248
ATTGCGAA | 0.0475
AACCCAGG | -0.23
GGCATGTA | 0.136
TATGGTAA | 0.0997
GTACAAAC | 0.121
GCGTGGAA | -0.0738
TCCCATCA | -0.201
AAAGCGTC | -0.0677
ACCATGTG | -0.0149
ATAATTAG | 0.207
AAAGTACT | -0.0073

Sequence | PBM E-score
CCCACAGC | -0.0512
AGCCCGGC | -0.0378
GTGAGTCA | -0.151
ATTAGTGA | 0.1
CATAACCA | -0.0918
AGCATTGG | -0.0346
AGCCTCGC | 0.0691
AACGAGTC | -0.0955
CATCCACC | -0.0391
GTAAGAAA | 0.0223
CCAGACCG | -0.132
ACATGATG | -0.0676
AATTACGG | 0.126
ATAGAATC | 0.19
TCTCTGAA | -0.156
AGTATCCC | -0.11
AACATTGT | 0.027
GCTCTACC | -0.266
AAAAAGAA | 0.194
AACTCGGT | -0.107
AATGAAAT | 0.22
AGCTCAAC | -0.0401
